Assay results published in PubChem BioAssay AID1508642 (National Center for Advancing Translational Sciences (NCATS), 2021).
The whole screen tested about 43,000 compounds, of which about 200 (0.47%) were called active. About 12% were inconclusive and are not listed. Calls follow the shape of the dose curve; as a rule, active = well fitted cell-killing curve with a large enough effect; inconclusive = small, poorly fitted or top-dose-only effect, or effect the other way; inactive = flat fitted curve, though single readings scatter. The list shows a part of the results.

test: Cell viability qHTS assay in S16 Pmp22-F2sN cells; conditions: S16 Pmp22-F2sN Schwann cells (luciferase reporters placed in the Pmp22 gene) viability, CellTiter-Glo, 24 h; series mostly up to 57.5 µM; activity change, negative = cytotoxicity: at the top concentration; also: nearly all actives have a fitted effect of over 65% in size
Procedure, shortened: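 S16 Schwann cells carrying the Pmp22-F2sN reporter, seeded in 1536-well format, were exposed to library compounds for 24 h at 37C. Viability was read as CellTiter-Glo luminescence after 15 min at room temperature.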
% is scaled to controls: 0 for no effect and ±100 for the full control effect.

Row | Structure (SMILES) | activity change, negative = cytotoxicity
1 | COc1ccc(CNC(=O)CCc2nc3cccnc3n2Cc2ccccc2)cc1 | inactive: -13.9%
2 | CCOc1ccc(CCNC(=O)C(C)n2nc(C)n3c(cc4occc43)c2=O)cc1OCC (configuration not stated) | inactive: -1.19%
3 | Cc1ccc(Cl)cc1N1CCN(C(=O)c2cn(C)c3ccc(S(=O)(=O)N(C)C4CCCCC4)cc3c2=O)CC1 | inactive: 6.16%
4 | CC(=O)Nc1ccc(NC(=O)C(Cc2ccccc2)N2Cc3ccccc3C2=O)cc1 (configuration not stated) | inactive: -0.64%
5 | Cc1cccc(N2CCN(C(=O)c3c(C)oc4nc(C)nc(N5CCCC5)c34)CC2C)c1 (configuration not stated) | inactive: 1.85%
6 | Cc1ccc(NC(=O)Cn2c(=O)n(CCC(=O)NCCc3ccccc3)c(=O)c3ccccc32)cc1 | inactive: 18.9%
7 | CCc1ccc(OCC(=O)N(Cc2ccco2)Cc2ccco2)cc1 | inactive: -20.1%
8 | COc1ccc(NC(=O)c2cc3c([nH]c2=O)CC(c2ccccc2)CC3=O)cc1 (configuration not stated) | inactive: -3.5%
9 | CCCOc1ccc(OC(=O)c2c(-c3ccccc3Cl)noc2C)cc1 | inactive: -21.6%
10 | COc1ccc(NC(=O)Cn2c(=O)n(-c3ccc(CC(=O)NCC4CCCO4)cc3)c(=O)c3ccccc32)c(OC)c1 (configuration not stated) | inactive: 29.9%
11 | COc1ccc(NC(=O)c2ccc3c(c2)c(C)c(C)n3Cc2ccc(F)cc2)c(OC)c1 | inactive: -12.9%
12 | COc1ccc(C2=Nn3c(nc4sc(C(=O)Nc5cccc(C)c5)c(C)c4c3=O)SC2)cc1 | inactive: 0.202%
13 | COc1cccc(CN2C(=O)c3ccccc3Sc3ccc(C(=O)NCCc4ccc(Cl)cc4)cc32)c1 | inactive: -4.21%
14 | COc1ccc(-c2nn3c(-c4ccc(C)cc4)nnc3c3ccccc23)cc1 | inactive: 8.21%
15 | Cc1cccc(NCc2nnc3n2CCCCC3)c1C | inactive: 8.27%
16 | CN(C(=O)c1ccc2c(c1)N(Cc1ccccc1F)C(=O)c1ccccc1S2)C1CCCCC1 | inactive: -11.7%
17 | COc1ccccc1N1CCN(c2nc3ccc(C)cc3nc2-n2nc(C)cc2C)CC1 | inactive: -0.805%
18 | CCOC(=O)c1c(C)n(-c2ccccc2)c2ccc(OC(=O)c3ccc(OCC)c(OCC)c3)cc12 | inactive: -10.6%
19 | Cc1cccc(-c2noc(-c3ccc(NCC4CCCO4)c([N+](=O)[O-])c3)n2)c1 (configuration not stated) | inactive: 3.51%
20 | COc1ccccc1NC(=O)CCn1nc(-c2ccccc2)c2ccccc2c1=O | inactive: -21.9%
21 | O=C(C1CCN(c2nc3ccccc3[nH]2)CC1)N1CCN(c2ccccc2)CC1 | inactive: 10.1%
22 | Cc1cc(C)cc(OCc2cc(=O)n3cc(C)sc3n2)c1 | inactive: 14.3%
23 | CCn1c(SCC(=O)c2ccc([N+](=O)[O-])cc2)nnc1-c1ccc(Cl)cc1 | inactive: 23%
24 | CCOC(=O)c1scc(-c2ccc(C)cc2)c1S(=O)(=O)Nc1cc(Cl)ccc1OC | inactive: 7.34%

Row | Structure (SMILES) | activity change, negative = cytotoxicity
25 | COc1cccc(CNC(=O)Cn2cc3c(n2)-c2c(oc(C(=O)N4CCCC4)c2C)CC3)c1 | inactive: 0.529%
26 | CCc1ccc(NC(=O)Cn2ncc3c4ccccc4n(C)c3c2=O)cc1 | inactive: 4.18%
27 | O=C(CC1N=C2c3ccccc3N=C(SCc3ccc(F)cc3)N2C1=O)NCc1cccs1 (configuration not stated) | inactive: 4.38%
28 | CCN(CC)C(=O)c1sc2c(c1C)c(=O)n(-c1ccccc1)c(=O)n2Cc1cc(=O)n2ccccc2n1 | inactive: -1.46%
29 | Clc1cccc(-c2csc(-c3nc(-c4ccc(Br)s4)cs3)n2)c1 | inactive: 2.78%
30 | COC(=O)Cn1c(CN2CCN(c3ccc(OC)cc3)CC2)nc2c1c(=O)[nH]c(=O)n2C | inactive: 3.59%
31 | CCOc1ccc(NC(=O)c2cc(S(=O)(=O)NC3CCCC3)ccc2F)cc1 | inactive: 3.92%
32 | CCOC(=O)c1c(S(=O)(=O)NCC(=O)Nc2cccc(CC)c2)c(C)n(C)c1C | inactive: 0.207%
33 | CCc1ccc(NC(=O)CSc2nc(-c3ccccc3)c(C#N)c(=O)[nH]2)cc1 | inactive: 0.971%
34 | CCCCn1cc(S(=O)(=O)c2ccc(OC)cc2)c(=O)c2cc(F)c(F)cc21 | inactive: -15.2%
35 | CCOc1ccc(CNC(=O)C2CCCN(S(=O)(=O)c3ccc4c(c3)CCCC(=O)N4)C2)cc1 (configuration not stated) | inactive: -3.61%
36 | Cc1cccc(-c2nc(SCC(=O)Nc3cccc(C(F)(F)F)c3)n3[nH]c(=O)cc3n2)c1 | inactive: -19.4%
37 | Cc1ccc(OCc2nc(-c3ccc(C(=O)N4CCN(c5ccc(Cl)cc5)CC4)cc3)oc2C)cc1 | inactive: 12.1%
38 | CCCCCCn1c(CNC(=O)c2ccccc2)nc2ccccc21 | inactive: 4.95%
39 | CCCn1c(=O)sc2cc(NC(=O)c3ccccc3OCC)ccc21 | inactive: 3.97%
40 | Cc1cc(C(=O)NCc2ccccc2C)c2c(C)nn(-c3cccc(F)c3)c2n1 | inactive: -3.3%
41 | CCOC(=O)C1=C(CN2CCN(CC)CC2)NC(=O)NC1c1ccc(Cl)cc1 (configuration not stated) | inactive: -1.64%
42 | COc1ccc(CNC(=O)c2nnn(CC(=O)Nc3cc(C)cc(C)c3)c2N)cc1 | inactive: -2.52%
43 | COc1ccccc1C(=O)NC1(C(F)(F)F)C(=O)Nc2c1c(=O)[nH]c(=O)n2CCc1ccccc1 (configuration not stated) | inactive: -2.43%
44 | Cc1ccc(C)c(CN2CCCN(Cc3cc(C)ccc3C)S2(=O)=O)c1 | inactive: -7.03%
45 | CCCn1c(SCC(O)c2cccc(OC)c2)nc2ccccc21 (configuration not stated) | inactive: 9.26%
46 | O=C(Nc1ccc(N2CCN(CCOc3ccc(Cl)cc3)CC2)c(C(=O)O)c1)c1ccc(F)cc1 | inactive: 29.4%
47 | Cc1ccc(S(=O)(=O)C(CNC(=O)C(=O)NCCc2ccccc2)c2ccco2)cc1 (configuration not stated) | inactive: -16.4%
